Reference: patent US10456379B2, “Imidazole-based antimicrobial agents” (priority 2014, dated 2019)

Tests used:
[1] = system: Staphylococcus aureus MRSA (COL); assay: Broth microdilution MIC assay, Staphylococcus aureus MRSA (COL); assay type: cell-based; conditions: MIC class score, MIC100, broth microdilution, COL strain
[2] = system: Human hepatocytes (HepaRG cells); assay: Human cytotoxicity assay in vitro (CellTiter-Glo), hepatocytes; assay type: cell-based; design: key: 4: inhibiting cell viability 50% or more at concentrations of 10 μM or less; 3: causing at least 80% inhibition of viability at 25 μM; showing toxicity at 25 μM, but causing less than 20% inhibition of viability; 1: not causing a loss of viability at concentrations between 25 and 50 μM; without signs of cell viability loss at concentrations of 50 μM or higher
[3] = system: Human keratinocytes (HaCaT cells); assay: Human cytotoxicity assay in vitro (CellTiter-Glo), keratinocytes; assay type: cell-based
[4] = system: Escherichia coli TolC mutant strain ΔtolC; assay type: cell-based
[5] = system: Staphylococcus aureus MSSA (Newman); assay: Broth microdilution MIC assay, Staphylococcus aureus MSSA (Newman); assay type: cell-based; conditions: MIC class score, MIC100, broth microdilution, Newman strain
[6] = system: Streptococcus pneumoniae (Chester, ATCC49619); assay: Broth microdilution MIC assay, Streptococcus pneumoniae; assay type: cell-based; conditions: MIC class score, MIC100, broth microdilution
[7] = system: Mycobacterium smegmatis (mc(2)155); assay: Broth microdilution MIC assay, Mycobacterium smegmatis

Row | SMILES | Antibacterial activity Staphylococcus aureus (MRSA) [1] | cytotoxicity, cell line H (hepatocytes), class [2] | cytotoxicity, cell line K (keratinocytes), class [3] | other results
1 | Cc1[nH]c(-c2cc(C)n(-c3ccc(Cl)cc3)c2C)nc1-c1ccccc1 [compound 8] | 1 (MIC100 of 20-50 μg/ml or an MIC50 of <10 μg/ml) | 2 | 1 (causing less than 50% inhibition of cell viability at 50 μM) | 
2 | Cc1[nH]c(-c2cc(C)n(-c3ccc(F)cc3F)c2C)nc1-c1ccccc1 [compound 9] | 1 (MIC100 of 20-50 μg/ml or an MIC50 of <10 μg/ml) | 3 | 2 (causing >50% inhibition of cell viability at 25 μM) | 
3 | Cc1[nH]c(-c2ccc(-c3ccccc3F)s2)nc1-c1ccccc1 [compound 15] |  | 1 (not causing a loss of viability at concentrations between 25 and 50 μM) | 1 (causing less than 50% inhibition of cell viability at 50 μM) | Antibacterial activity, EC Δ (Escherichia coli ΔtoIC), MIC class [4]: 1 (MIC100 of 20-50 μg/ml or an MIC50 of <10 μg/ml)
4 | Cc1nc(-c2ccc(-c3ccc(Cl)cc3Cl)o2)[nH]c1-c1ccc(F)cc1 [compound 16] |  | 3 | 1 (causing less than 50% inhibition of cell viability at 50 μM) | Antibacterial activity Staphylococcus aureus (MSSA) [5]: 4 (MIC of 1 μg/ml to 3 μg/ml for preventing staphylococcal growth 100% (MIC100))
5 | Cc1nc(-c2ccc(-c3ccccc3OC(F)(F)F)o2)[nH]c1-c1ccccc1Cl [compound 19] | 1 (MIC100 of 20-50 μg/ml or an MIC50 of <10 μg/ml) | 3 | 0 (not causing loss of cell viability at concentrations of 50 μM or higher) | Antibacterial activity Staphylococcus aureus (MSSA) [5]: 1 (MIC100 of 20-50 μg/ml or an MIC50 of <10 μg/ml)
6 | Cc1[nH]c(-c2ccc(-c3ccccc3OC(F)(F)F)o2)nc1-c1ccc(F)cc1 [compound 23, 4-(4-Fluoro-phenyl)-5-methyl-2-[5-(2-trifluoromethoxy-phenyl)-furan-2-yl]-1H-imidazole] | 4 (MIC of 1 μg/ml to 3 μg/ml for preventing staphylococcal growth 100% (MIC100)) | 3 | 2 (causing >50% inhibition of cell viability at 25 μM) | Antibacterial activity Streptococcus pneumoniae [6]: 4 (MIC of 1 μg/ml or less for preventing streptococcal growth 100% (MIC100))
7 | Cc1[nH]c(-c2ccn(-c3ccccc3C(F)(F)F)c2)nc1-c1ccccc1 [compound 33] | 1 (MIC100 of 20-50 μg/ml or an MIC50 of <10 μg/ml) |  | 3 (causing more than 50% inhibition of cell viability at 10 μM) | 
8 | Cc1[nH]c(-c2ccc(-c3cccc(C(F)(F)F)c3)o2)nc1-c1ccc(F)cc1 [compound 38] |  | 1 (not causing a loss of viability at concentrations between 25 and 50 μM) | 2 (causing >50% inhibition of cell viability at 25 μM) | Antibacterial activity Staphylococcus aureus (MSSA) [5]: 4 (MIC of 1 μg/ml to 3 μg/ml for preventing staphylococcal growth 100% (MIC100))
9 | Cc1nc(-c2ccc(-c3ccc(Cl)c(OC(F)(F)F)c3)o2)[nH]c1-c1ccccc1 [compound 41] |  | 2 | 2 (causing >50% inhibition of cell viability at 25 μM) | Antibacterial activity, MS (Mycobacterium smegmatis), MIC class [7]: 1 (MIC100 of 20-50 μg/ml or an MIC50 of <10 μg/ml); Antibacterial activity Streptococcus pneumoniae [6]: 4 (MIC of 1 μg/ml or less for preventing streptococcal growth 100% (MIC100))
10 | Cc1[nH]c(-c2ccc(-c3ccc(Cl)c(C(F)(F)F)c3)o2)nc1-c1ccc(F)cc1 [compound 42] |  | 1 (not causing a loss of viability at concentrations between 25 and 50 μM) | 3 (causing more than 50% inhibition of cell viability at 10 μM) | Antibacterial activity, MS (Mycobacterium smegmatis), MIC class [7]: 1 (MIC100 of 20-50 μg/ml or an MIC50 of <10 μg/ml); Antibacterial activity Staphylococcus aureus (MSSA) [5]: 4 (MIC of 1 μg/ml to 3 μg/ml for preventing staphylococcal growth 100% (MIC100))
11 | Cc1nc(-c2ccc(-c3ccc(Cl)c(OC(F)(F)F)c3)o2)[nH]c1-c1ccc(Cl)cc1 [compound 44] |  | 2 |  | Antibacterial activity, MS (Mycobacterium smegmatis), MIC class [7]: 1 (MIC100 of 20-50 μg/ml or an MIC50 of <10 μg/ml); Antibacterial activity Staphylococcus aureus (MSSA) [5]: 4 (MIC of 1 μg/ml to 3 μg/ml for preventing staphylococcal growth 100% (MIC100))
12 | Cc1[nH]c(-c2ccc(-c3ccc(C(F)(F)F)cc3)s2)nc1-c1ccccc1 [compound 46] |  | 1 (not causing a loss of viability at concentrations between 25 and 50 μM) | 1 (causing less than 50% inhibition of cell viability at 50 μM) | Antibacterial activity, MS (Mycobacterium smegmatis), MIC class [7]: 1 (MIC100 of 20-50 μg/ml or an MIC50 of <10 μg/ml)
13 | Cc1[nH]c(-c2ccc(-c3ccc(C(F)(F)F)cc3)o2)nc1-c1ccc(Cl)cc1 [compound 47] |  | 1 (not causing a loss of viability at concentrations between 25 and 50 μM) | 2 (causing >50% inhibition of cell viability at 25 μM) | Antibacterial activity Staphylococcus aureus (MSSA) [5]: 4 (MIC of 1 μg/ml to 3 μg/ml for preventing staphylococcal growth 100% (MIC100))
14 | Cc1[nH]c(-c2ccc(-c3ccc(OC(F)(F)F)cc3Cl)o2)nc1-c1ccc(F)cc1 [compound 51] | 1 (MIC100 of 20-50 μg/ml or an MIC50 of <10 μg/ml) | 3 | 3 (causing more than 50% inhibition of cell viability at 10 μM) | 
15 | FC(F)(F)Oc1ccccc1-c1ccc(-c2nc(Cl)c(-c3ccccc3)[nH]2)o1 [compound 64] |  | 3 | 3 (causing more than 50% inhibition of cell viability at 10 μM) | Antibacterial activity, MS (Mycobacterium smegmatis), MIC class [7]: 1 (MIC100 of 20-50 μg/ml or an MIC50 of <10 μg/ml); Antibacterial activity Streptococcus pneumoniae [6]: 4 (MIC of 1 μg/ml or less for preventing streptococcal growth 100% (MIC100))
16 | Cc1ccccc1-c1c[nH]c(-c2ccc(-c3ccccc3OC(F)(F)F)o2)n1 [compound 66] |  | 3 | 1 (causing less than 50% inhibition of cell viability at 50 μM) | Antibacterial activity Streptococcus pneumoniae [6]: 4 (MIC of 1 μg/ml or less for preventing streptococcal growth 100% (MIC100))
17 | Cc1[nH]c(-c2ccc(-c3ccccc3OC(F)(F)F)o2)nc1-c1ccc(O)cc1 [compound 76] | 4 (MIC of 1 μg/ml to 3 μg/ml for preventing staphylococcal growth 100% (MIC100)) |  |  | 
18 | FC(F)(F)c1ccccc1-c1ccc(-c2nc3c([nH]2)CCCC3)o1 [compound 87] | 4 (MIC of 1 μg/ml to 3 μg/ml for preventing staphylococcal growth 100% (MIC100)) |  |  | 
19 | FC(F)(F)Oc1ccccc1-c1ccc(-c2nc3c([nH]2)CCCC3)o1 [compound 88] | 4 (MIC of 1 μg/ml to 3 μg/ml for preventing staphylococcal growth 100% (MIC100)) |  |  | 
20 | CCCc1[nH]c(-c2ccc(-c3ccccc3OC(F)(F)F)o2)nc1C [compound 89] | 4 (MIC of 1 μg/ml to 3 μg/ml for preventing staphylococcal growth 100% (MIC100)) |  |  | 
21 | CCCCc1nc(-c2ccc(-c3ccccc3C(F)(F)F)o2)[nH]c1C [compound 90] | 4 (MIC of 1 μg/ml to 3 μg/ml for preventing staphylococcal growth 100% (MIC100)) |  |  | 
22 | CCCCc1[nH]c(-c2ccc(-c3ccccc3OC(F)(F)F)o2)nc1C [compound 91] | 4 (MIC of 1 μg/ml to 3 μg/ml for preventing staphylococcal growth 100% (MIC100)) |  |  | 
23 | Cc1nc(-c2ccc(-c3ccccc3C(F)(F)F)o2)[nH]c1CC(C)C [compound 92] | 4 (MIC of 1 μg/ml to 3 μg/ml for preventing staphylococcal growth 100% (MIC100)) |  |  | 
24 | CCCc1[nH]c(-c2ccc(-c3ccccc3Cl)o2)nc1C [compound 95] | 4 (MIC of 1 μg/ml to 3 μg/ml for preventing staphylococcal growth 100% (MIC100)) |  |  | 
25 | CCCc1nc(-c2ccc(-c3cccc(C(F)(F)F)c3)o2)[nH]c1C [compound 99] | 4 (MIC of 1 μg/ml to 3 μg/ml for preventing staphylococcal growth 100% (MIC100)) |  |  | 
26 | CCCc1[nH]c(-c2ccc(-c3ccccc3C(F)(F)F)o2)nc1C [compound 101] | 4 (MIC of 1 μg/ml to 3 μg/ml for preventing staphylococcal growth 100% (MIC100)) |  |  | 
27 | CCCc1[nH]c(-c2ccc(-c3cc4ccccc4o3)o2)nc1C [compound 106] | 4 (MIC of 1 μg/ml to 3 μg/ml for preventing staphylococcal growth 100% (MIC100)) |  |  | 
28 | CCCc1[nH]c(-c2ccc(-c3ccc(N4CCN(C)CC4)cc3)o2)nc1C [compound 107] | 1 (MIC100 of 20-50 μg/ml or an MIC50 of <10 μg/ml) |  |  | Antibacterial activity Streptococcus pneumoniae [6]: 1 (MIC100 of 11-20 μg/ml or an MIC50 of <10 μg/ml)
29 | Cc1nc(-c2cc(C)n(-c3ccccc3F)c2C)[nH]c1-c1ccccc1 [compound 119] | 1 (MIC100 of 20-50 μg/ml or an MIC50 of <10 μg/ml) |  |  | Antibacterial activity Streptococcus pneumoniae [6]: 1 (MIC100 of 11-20 μg/ml or an MIC50 of <10 μg/ml)
30 | Cc1nc(-c2ccc(-c3cccc(C(F)(F)F)c3)o2)[nH]c1-c1ccccc1 [compound 142] | 4 (MIC of 1 μg/ml to 3 μg/ml for preventing staphylococcal growth 100% (MIC100)) |  |  | Antibacterial activity Staphylococcus aureus (MSSA) [5]: 4 (MIC of 1 μg/ml to 3 μg/ml for preventing staphylococcal growth 100% (MIC100))
